Measured values as given in the supplement of paper PMC4967469.
A lower IC50 marks a more sensitive line; fits outside the tested doses are given as limits. AUC sums up the same curve from the lowest dose to the 256-fold higher top dose: 1 means no effect, lower means more sensitive. For some assays here: A top dose marked as inferred was calculated from the reported fits. For some assays here: Where an entry number is given, a second screen of the drug exists; the two often differ.

Assays:
Experiment in all cases: Viability of human cancer cell lines after 72 h of drug (GDSC screen)
CHIR-99021 = compound: Cc1cnc(-c2cnc(NCCNc3ccc(C#N)cn3)nc2-c2ccc(Cl)cc2Cl)[nH]1 [CHIR-99021]
Description: (§1)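 Human cancer cell lines in 384-well plates, medium with 10% serum, drug for 72 h over a 256-fold dose range (nine 2-fold or five 4-fold steps up to the top dose). Adherent lines were fixed and stained with the nucleic acid dye Syto60, suspension lines read with resazurin; signal relative to control wells, capped at 0 and 100%. One two-parameter sigmoid per drug and line, fitted in a mixed model over all curves with the slope shared within a line.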

Cytarabine = compound: Nc1ccn([C@@H]2O[C@H](CO)[C@@H](O)[C@@H]2O)c(=O)n1 [Cytarabine]; conditions: top dose 2 µM
Description: as §1

Thapsigargin = compound: C/C=C(/C)C(=O)O[C@H]1C(C)=C2[C@H]([C@@H]1OC(=O)CCCCCCC)[C@@](C)(OC(C)=O)C[C@H](OC(=O)CCC)[C@@]1(O)[C@H]2OC(=O)[C@@]1(C)O [Thapsigargin]; conditions: top dose 0.512 µM; top dose inferred
Description: as §1

(5Z)-7-Oxozeaenol = compound: COc1cc(O)c2c(c1)/C=C/C[C@H](O)[C@H](O)C(=O)/C=C\C[C@H](C)OC2=O [(5Z)-7-Oxozeaenol]; conditions: top dose 10 µM; top dose inferred
Description: as §1

QL-X-138 = compound: C=CC(=O)Nc1cc(-n2c(=O)ccc3cnc4ccc(-c5cn[nH]c5)cc4c32)ccc1C [QL-X-138]; conditions: top dose 10.24 µM; top dose inferred
Description: as §1

MPS-1-IN-1 = compound: COc1cc(N2CCC(O)CC2)ccc1Nc1cc(Nc2ccccc2S(=O)(=O)C(C)C)c2cc[nH]c2n1 [MPS-1-IN-1]; conditions: top dose 20 µM; top dose inferred
Description: as §1

ABT-869 = compound: Cc1ccc(F)c(NC(=O)Nc2ccc(-c3cccc4[nH]nc(N)c34)cc2)c1 [ABT-869]; conditions: top dose 1.024 µM; top dose inferred
Description: as §1

GSK269962A = compound: CCn1c(-c2nonc2N)nc2cnc(Oc3cccc(NC(=O)c4ccc(OCCN5CCOCC5)cc4)c3)cc21 [GSK269962A]; conditions: top dose inferred
Description: as §1

CP466722 = compound: COc1cc2ncnc(-n3nc(-c4ccccn4)nc3N)c2cc1OC [CP466722]; conditions: top dose 16 µM; top dose inferred
Description: as §1

Zibotentan = compound: COc1nc(C)cnc1NS(=O)(=O)c1cccnc1-c1ccc(-c2nnco2)cc1 [Zibotentan]; conditions: top dose 20 µM; top dose inferred
Description: as §1

ABT-888 = compound: C[C@]1(c2nc3c(C(N)=O)cccc3[nH]2)CCCN1 [ABT-888]; conditions: top dose 5 µM; top dose inferred
Description: as §1

KU-55933 = compound: O=c1cc(-c2cccc3c2Sc2ccccc2S3)oc(N2CCOCC2)c1 [KU-55933]; conditions: top dose 10 µM
Description: as §1

[1] = top dose 2.56 µM, screen: GDSC drug entry 154
[2] = top dose 10 µM, screen: GDSC drug entry 1241, top dose inferred
[3] = top dose 5 µM, screen: GDSC drug entry 1192
[4] = top dose 2.5 µM, screen: GDSC drug entry 127

Row | Cell Line | AUC (CHIR-99021; [1]) | IC50 (CHIR-99021; [1]) [µM] | AUC (CHIR-99021; [2]) | IC50 (CHIR-99021; [2]) [µM] | AUC (Cytarabine) | IC50 (Cytarabine) [µM] | AUC (Thapsigargin) | IC50 (Thapsigargin) [µM] | AUC ((5Z)-7-Oxozeaenol) | IC50 ((5Z)-7-Oxozeaenol) [µM] | AUC (QL-X-138) | IC50 (QL-X-138) [µM] | AUC (MPS-1-IN-1) | IC50 (MPS-1-IN-1) [µM] | AUC (ABT-869) | IC50 (ABT-869) [µM] | AUC (GSK269962A; [3]) | IC50 (GSK269962A; [3]) [µM] | AUC (CP466722) | IC50 (CP466722) [µM] | AUC (Zibotentan) | IC50 (Zibotentan) [µM] | AUC (ABT-888) | IC50 (ABT-888) [µM] | AUC (KU-55933) | IC50 (KU-55933) [µM] | AUC (GSK269962A; [4]) | IC50 (GSK269962A; [4]) [µM]
1 | JHH-6 (liver, adherent) | 0.98 | > 2.56 | 0.874 | > 10 | 0.767 | 0.755 | 0.151 | 0.0026 | 0.741 | 3.1 | 0.929 | > 10.2 | 0.964 | > 20 | 0.984 | > 1.02 | 0.83 | 3.21 | 0.953 | > 16 | 0.986 | > 20 | 0.986 | > 5 | – | – | – | –
2 | KYSE-70 (oesophagus, adherent) | 0.986 | > 2.56 | 0.983 | > 10 | 0.824 | 1.34 | 0.127 | < 0.002 | 0.81 | 5.86 | 0.906 | > 10.2 | 0.985 | > 20 | 0.982 | > 1.02 | 0.597 | 0.593 | 0.924 | > 16 | 0.986 | > 20 | – | – | – | – | – | –
3 | M14 (melanoma, adherent) | 0.923 | > 2.56 | 0.952 | > 10 | 0.703 | 0.482 | 0.299 | 0.00841 | 0.121 | < 0.0391 | 0.986 | > 10.2 | 0.837 | 14.4 | 0.987 | > 1.02 | 0.979 | > 5 | 0.986 | > 16 | 0.987 | > 20 | 0.987 | > 5 | – | – | – | –
4 | TK (B-cell lymphoma, suspension) | 0.99 | > 2.56 | 0.981 | > 10 | – | – | 0.382 | 0.0156 | 0.751 | 3.04 | 0.569 | 0.968 | 0.812 | 9.54 | 0.984 | > 1.02 | 0.952 | > 5 | 0.724 | 4.04 | 0.989 | > 20 | 0.99 | > 5 | 0.99 | > 10 | 0.926 | > 2.5
5 | TMK-1 (stomach, adherent) | 0.92 | > 2.56 | 0.851 | 8.37 | – | – | 0.201 | 0.00389 | 0.69 | 2.2 | 0.91 | > 10.2 | 0.931 | > 20 | 0.981 | > 1.02 | 0.913 | > 5 | 0.95 | > 16 | 0.985 | > 20 | 0.986 | > 5 | 0.925 | > 10 | – | –
6 | TOV-21G (ovary, adherent) | 0.982 | > 2.56 | 0.9 | > 10 | – | – | 0.894 | > 0.512 | 0.577 | 1.03 | 0.983 | > 10.2 | 0.985 | > 20 | 0.978 | > 1.02 | 0.851 | 4.35 | 0.782 | 7.29 | 0.981 | > 20 | 0.94 | > 5 | 0.961 | > 10 | – | –
7 | TT2609-C02 (thyroid, adherent) | 0.944 | > 2.56 | 0.948 | > 10 | – | – | 0.079 | < 0.002 | 0.838 | 7.44 | 0.762 | 3.91 | 0.96 | > 20 | 0.978 | > 1.02 | 0.929 | > 5 | 0.979 | > 16 | 0.98 | > 20 | 0.98 | > 5 | 0.951 | > 10 | – | –
8 | TT (thyroid, adherent) | 0.982 | > 2.56 | 0.974 | > 10 | – | – | 0.802 | 0.378 | 0.901 | > 10 | 0.974 | > 10.2 | 0.928 | > 20 | 0.981 | > 1.02 | 0.948 | > 5 | 0.965 | > 16 | 0.983 | > 20 | 0.97 | > 5 | 0.973 | > 10 | – | –
9 | UMC-11 (lung carcinoid, adherent) | – | – | – | – | 0.984 | > 2 | 0.325 | 0.0111 | 0.945 | > 10 | 0.684 | 1.96 | 0.899 | > 20 | 0.99 | > 1.02 | 0.401 | 0.172 | 0.787 | 6.18 | 0.991 | > 20 | 0.991 | > 5 | – | – | – | –
10 | VMRC-RCW (kidney, adherent) | 0.934 | > 2.56 | – | – | 0.868 | 1.61 | 0.265 | 0.00726 | – | – | 0.934 | > 10.2 | 0.983 | > 20 | 0.989 | > 1.02 | – | – | 0.892 | > 16 | 0.989 | > 20 | 0.984 | > 5 | – | – | – | –
11 | YKG-1 (glioma, adherent) | 0.986 | > 2.56 | 0.973 | > 10 | – | – | 0.285 | 0.00778 | 0.651 | 1.65 | 0.556 | 0.912 | 0.918 | > 20 | 0.977 | > 1.02 | 0.774 | 1.99 | 0.839 | 11.2 | 0.977 | > 20 | 0.984 | > 5 | 0.939 | > 10 | – | –
